Laboratory results from the supplement of paper PMC10322689.
Where a name gives a salt, the structure may show the parent alone. ± gives the standard deviation of the averaged measurements. Some of the results follow. Repeats are few or missing, and single values can be far off.

test system: mouse mesenchymal chondrosarcoma cells (HEY1-NCOA2); experiment: XTT absorbance relative to DMSO control (cell viability) (fraction of DMSO control); higher = more viable cells / less growth inhibition

Q: For `COc1cc2ncnc(Nc3ccc(F)c(Cl)c3)c2cc1OCCCN1CCOCC1` [gefitinib], which XTT absorbance is on record?
A: 0.857

Q: `Nc1nc2c(nc(Sc3ccc(Cl)cc3)n2C2O[C@@H]3CO[P+](O)(S)OC3[C@@H]2O)c(=O)[nH]1` (some centres not stated) was tested. Which XTT absorbance did it give?
A: 0.932 ± 0.025

Q: Which XTT absorbance does the source give for `C[C@@H]1C[C@H]2O[C@@H]2/C=C\C=C\C(=O)Cc2c(Cl)c(O)cc(O)c2C(=O)O1` [Radicicol] here?
A: 0.55

Q: Which XTT absorbance does the source give for `O=C1C(SCCO)=C(SCCO)C(=O)c2ccccc21` here?
A: 0.774

Q: With `O=Nc1c(-c2c(O)[nH]c3cc(Br)ccc23)[nH]c2ccccc12` [GSK-3 inhibitor IX] as the compound, how does the XTT absorbance read?
A: 0.99

Q: Which XTT absorbance does the source give for `COc1cc2nccc(Oc3ccc(NC(=S)NC(=O)c4ccccc4C)cc3)c2cc1OC` [PDGF receptor tyrosine kinase inhibitor V] here?
A: 0.759

Q: `CCN(CC)CCNC(=O)c1c(C)[nH]c(/C=C2\C(=O)Nc3ccc(Cl)cc32)c1C` was tested. Which XTT absorbance did it give?
A: 0.742

Q: With `COc1cccc2c1C(=O)c1c(O)c3c(c(O)c1C2=O)C[C@@](O)(C(C)=O)C[C@@H]3O[C@H]1C[C@H](N)[C@H](O)[C@H](C)O1` [Daunorubicin, HCl] as the compound, how does the XTT absorbance read?
A: 0.235

Q: How did the XTT absorbance turn out when `CC[C@@]1(O)C[C@H](O[C@H]2C[C@H](N(C)C)[C@H](O[C@H]3C[C@H](O)[C@H](O[C@H]4CCC(=O)[C@H](C)O4)[C@H](C)O3)[C@H](C)O2)c2c(cc3c(c2O)C(=O)c2c(O)cccc2C3=O)[C@H]1C(=O)OC` [Aclarubicin] was run?
A: 0.402

Q: Which XTT absorbance does the source give for `COc1ccc(COc2ccc(Cc3cnc(N)nc3N)cc2OC)cc1` [cFMS Receptor Tyrosine Kinase Inhibitor] here?
A: 0.952

Q: With `N#CC[C@H](C1CCCC1)n1cc(-c2ncnc3[nH]ccc23)cn1` [Ruxolitinib] as the compound, how does the XTT absorbance read?
A: 0.909

Q: Which XTT absorbance does the source give for `Nc1ncn([C@H]2C[C@H](O)[C@@H](CO)O2)c(=O)n1` [Decitabine] here?
A: 0.898

Q: With `COc1ccc([C@@H]2Sc3ccccc3N(CCN(C)C)C(=O)[C@@H]2OC(C)=O)cc1` [Diltiazem] as the compound, how does the XTT absorbance read?
A: 0.942

Q: Which XTT absorbance does the source give for `NC(=O)c1ccccc1` [Benzamide] here?
A: 0.877

Q: With `CC(C)C(=O)Nc1ccc([N+](=O)[O-])c(C(F)(F)F)c1` [Flutamide] as the compound, how does the XTT absorbance read?
A: 0.965

Q: Which XTT absorbance does the source give for `CNC(=O)c1ccccc1Sc1ccc2c(/C=C/c3ccccn3)n[nH]c2c1` [Axitinib] here?
A: 0.725

Q: Which XTT absorbance does the source give for `C=CC[C@@H]1/C=C(\C)C[C@H](C)C[C@H](OC)[C@H]2O[C@@](O)(C(=O)C(=O)N3CCCC[C@H]3C(=O)O[C@H](/C(C)=C/[C@@H]3CC[C@@H](O)[C@H](OC)C3)[C@H](C)[C@@H](O)CC1=O)[C@H](C)C[C@@H]2OC` here?
A: 0.949

Q: How did the XTT absorbance turn out when `CC(=N)NCc1cccc(CN)c1` was run?
A: 0.863

Q: How did the XTT absorbance turn out when `CC(C)C(C(=O)O)N1C(=O)C(=Cc2ccc(Br)cc2)SC1=S` (configuration not stated) was run?
A: 0.937

Q: With `O=S(=O)(c1cccc2cnccc12)N1CCCNCC1` as the compound, how does the XTT absorbance read?
A: 0.922

Q: Which XTT absorbance does the source give for `C[n+]1cc2c3c(ccc2c2ccc4cc5c(cc4c21)OCO5)OCO3` [Sanguinarine] here?
A: 0.782

Q: How did the XTT absorbance turn out when `C/C=C/C/C=C/CCC(=O)[C@H]1O[C@H]1C(N)=O` [Cerulenin] was run?
A: 0.942

Q: For `CC(C)[C@H](CO)Nc1nc(Nc2cccc(Cl)c2)c2ncn(C(C)C)c2n1` [Purvalanol A], which XTT absorbance is on record?
A: 0.994

Q: With `Cc1cnc(-c2cnc(NCCNc3ccc(C#N)cn3)nc2-c2ccc(Cl)cc2Cl)[nH]1` as the compound, how does the XTT absorbance read?
A: 0.865

Q: With `CN(C)CCCCC(=O)Nc1ccc(NC(=S)NC(=O)c2ccc(C(C)(C)C)cc2)cc1` [Tenovin-6] as the compound, how does the XTT absorbance read?
A: 0.747

Q: `CC1=C(/C=C/C(C)=C/C=C/C(C)=C/C(=O)O)C(C)(C)CCC1` [tretinoin] was tested. Which XTT absorbance did it give?
A: 1.06

Q: For `CCC(=C/[C@H](C)C/C=C/C(C)=C/[C@@H](C)C(=O)[C@@H](C)[C@H](O)[C@@H](C)C/C(C)=C/C(=O)O)/C=C/[C@@H]1OC(=O)C=C[C@@H]1C` [Leptomycin B*], which XTT absorbance is on record?
A: 0.196

Q: Which XTT absorbance does the source give for `CSCC[C@H](NC(=O)c1ccc(NC[C@@H](N)CS)cc1-c1ccccc1)C(=O)O` here?
A: 0.958

Q: `O=CN1CCN(c2ccc(/C=C3\C(=O)Nc4ccccc43)cc2)CC1` was tested. Which XTT absorbance did it give?
A: 0.955

Q: `CCCCCCCCCCC1=C(C)C(=O)C(OC)=C(OC)C1=O` [Decylubiquinone] was tested. Which XTT absorbance did it give?
A: 0.952

Q: For `CCCCCCCC(=O)OCCOC(=O)CCCCCCC` [Dioctanoylglycol], which XTT absorbance is on record?
A: 0.906

Q: With `CSc1ccc(/C=C2/C(C)=C(CC(=O)O)c3cc(F)ccc32)cc1` [Sulindac sulfide] as the compound, how does the XTT absorbance read?
A: 0.907

Q: Which XTT absorbance does the source give for `OCCn1cc(-c2cnc3nnn(Cc4ccc5ncccc5c4)c3n2)cn1` here?
A: 0.911

Q: How did the XTT absorbance turn out when `CC(C)[C@H](CO)Nc1nc(Nc2cccc(Cl)c2)c2ncn(C(C)C)c2n1` [purvalanol A] was run?
A: 0.968

Q: Which XTT absorbance does the source give for `CC(C)(C)c1nc2c3cc[nH]c(=O)c3c3cc(F)ccc3c2[nH]1` [JAK Inhibitor I] here?
A: 0.881

Q: `C[C@@H]1C[C@H]2O[C@@H]2/C=C\C=C\C(=O)Cc2c(Cl)c(O)cc(O)c2C(=O)O1` [radicicol] was tested. Which XTT absorbance did it give?
A: 0.599

Q: How did the XTT absorbance turn out when `O=C(Nc1cccc2cccnc12)c1ccc(N2C(=O)[C@@H]3[C@H](C2=O)[C@@H]2C=C[C@H]3C2)cc1` [IWR-1-endo] was run?
A: 0.91
